{"source": "paper PMC4336329", "about": "(PLoS ONE, 2015)", "note": "Out of some 310,000 compounds screened, about 14,000 (4.5%) showed an effect of 50% or more. The effect is printed as a negative number. Some of the results follow.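 Note: peak tail current of the secondary pulse compared with the same well before compound.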"}
{"molecular_target": "human ether-à-go-go-related gene (hERG) potassium channel (human, UniProt Q12809)", "sequence (Q12809 whole entry, looked up)": "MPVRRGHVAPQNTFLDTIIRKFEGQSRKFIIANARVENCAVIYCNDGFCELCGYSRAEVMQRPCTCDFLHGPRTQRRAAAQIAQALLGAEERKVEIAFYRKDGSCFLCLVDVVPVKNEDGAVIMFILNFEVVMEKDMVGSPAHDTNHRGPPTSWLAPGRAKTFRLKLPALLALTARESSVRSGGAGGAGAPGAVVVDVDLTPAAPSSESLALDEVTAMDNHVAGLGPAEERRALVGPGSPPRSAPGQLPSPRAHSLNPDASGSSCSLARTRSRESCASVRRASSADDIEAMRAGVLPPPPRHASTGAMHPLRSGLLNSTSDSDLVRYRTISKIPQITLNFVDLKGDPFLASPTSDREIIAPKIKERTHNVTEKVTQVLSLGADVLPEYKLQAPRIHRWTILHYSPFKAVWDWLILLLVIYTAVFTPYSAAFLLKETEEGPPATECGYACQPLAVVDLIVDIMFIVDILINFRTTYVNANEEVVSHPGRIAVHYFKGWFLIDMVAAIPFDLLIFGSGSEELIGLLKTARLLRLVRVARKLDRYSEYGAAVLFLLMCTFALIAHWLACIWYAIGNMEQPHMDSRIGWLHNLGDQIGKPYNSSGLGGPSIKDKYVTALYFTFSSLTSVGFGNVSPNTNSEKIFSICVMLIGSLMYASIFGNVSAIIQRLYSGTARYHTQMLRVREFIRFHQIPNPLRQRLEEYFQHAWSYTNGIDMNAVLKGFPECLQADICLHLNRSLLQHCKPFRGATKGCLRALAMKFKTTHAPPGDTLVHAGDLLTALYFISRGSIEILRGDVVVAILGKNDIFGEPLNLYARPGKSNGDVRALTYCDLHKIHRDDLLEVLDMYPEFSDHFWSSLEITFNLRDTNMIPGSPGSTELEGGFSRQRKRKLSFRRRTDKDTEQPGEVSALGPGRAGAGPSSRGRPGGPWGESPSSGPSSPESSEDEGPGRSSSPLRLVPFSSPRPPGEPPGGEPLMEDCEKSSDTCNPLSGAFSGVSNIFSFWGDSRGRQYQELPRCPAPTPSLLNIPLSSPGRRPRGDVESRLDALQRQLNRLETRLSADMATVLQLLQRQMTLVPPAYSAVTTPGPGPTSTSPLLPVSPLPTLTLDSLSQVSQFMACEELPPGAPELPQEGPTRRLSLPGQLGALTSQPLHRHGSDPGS", "assay": "primary screen, population patch clamp on CHO cells stably expressing hERG", "units": {"hERG current change (%, negative = inhibition) at 10uM": "%"}}
{"smiles": "CC(=O)c1cc2c(C)c(C(=O)c3ccccc3)oc2cc1O", "hERG current change (%, negative = inhibition) at 10uM": 10.5}
{"smiles": "O=C(COC(=O)c1ccco1)Nc1ccc2c(c1)OCO2", "hERG current change (%, negative = inhibition) at 10uM": 5.79}
{"smiles": "CCn1cc(Br)c(C(=O)Nc2ccc(F)c(Cl)c2)n1", "hERG current change (%, negative = inhibition) at 10uM": -20.3}
{"smiles": "COc1ccc(-c2nc(N3CCN(C)CC3)sc2-c2ccc(OC)cc2)cc1", "hERG current change (%, negative = inhibition) at 10uM": -25.9}
{"smiles": "COC(=O)c1ccc(COc2ccc3ccc(=O)oc3c2)o1", "hERG current change (%, negative = inhibition) at 10uM": 8.66}
{"smiles": "COC(=O)C1=C(c2cc3ccccc3s2)C[C@@H]2CC[C@H]1N2C(=O)NCc1ccc(F)cc1", "hERG current change (%, negative = inhibition) at 10uM": -2.9}
{"smiles": "N#Cc1ccc(NC(=O)C2=COCCO2)cc1", "hERG current change (%, negative = inhibition) at 10uM": 3.09}
{"smiles": "NS(=O)(=O)c1ccc(CNC(=O)c2cnccn2)cc1", "hERG current change (%, negative = inhibition) at 10uM": -1.09}
{"smiles": "CCNC(=S)N1N=C2c3ccccc3CCC2C1c1ccc(F)cc1", "note": "(centres unmarked)", "hERG current change (%, negative = inhibition) at 10uM": 13.8}
{"smiles": "O=C(NCCc1c[nH]c2ccccc12)C(=O)NCC1OCCCN1S(=O)(=O)c1cc(F)ccc1F", "note": "(centres unmarked)", "hERG current change (%, negative = inhibition) at 10uM": 4.56}
{"smiles": "COC(=O)C(c1cc(OC)c(O)c(OC)c1)(N1CCNC(C)C1)C(F)(F)F", "note": "(centres unmarked)", "hERG current change (%, negative = inhibition) at 10uM": -9.77}
{"smiles": "CC1Cc2ccccc2N1Cc1cc(=O)c(OCC(=O)NCCc2ccccc2)co1", "note": "(centres unmarked)", "hERG current change (%, negative = inhibition) at 10uM": 8.71}
{"smiles": "COc1ccccc1C(=O)NNC(=O)CCN1C(=O)/C(=C\\c2ccccc2)SC1=S", "hERG current change (%, negative = inhibition) at 10uM": 16.4}
{"smiles": "CC1CN(C(=O)C(c2ccccc2)c2ccccc2)CC(C)O1", "note": "(centres unmarked)", "hERG current change (%, negative = inhibition) at 10uM": 13.7}
{"smiles": "O=C(COC(=O)c1ccc(Br)cc1)NCc1ccc(F)cc1", "hERG current change (%, negative = inhibition) at 10uM": 18.1}
{"smiles": "CC(C)c1ccc(/C=C/C(=O)NC2=NCCS2)cc1", "hERG current change (%, negative = inhibition) at 10uM": 10.8}
{"smiles": "Cc1nnc(SCC(=O)Nc2ccc3c(c2)OCCO3)s1", "hERG current change (%, negative = inhibition) at 10uM": 16.9}
{"smiles": "CCOc1ccc(N(CC(=O)N2CCOCC2)S(=O)(=O)c2ccc(SC)cc2)cc1", "hERG current change (%, negative = inhibition) at 10uM": -14.3}
{"smiles": "O=CN1CCN(C(=O)CC(c2ccccc2)c2cc(Br)ccc2O)CC1", "note": "(centres unmarked)", "hERG current change (%, negative = inhibition) at 10uM": -40.3}
{"smiles": "CCNC(=O)CN(CCc1ccccc1)S(C)(=O)=O", "hERG current change (%, negative = inhibition) at 10uM": 17.8}
{"smiles": "Cc1ccc2[nH]c(=O)c(COC(=O)C3CCCO3)cc2c1", "note": "(centres unmarked)", "hERG current change (%, negative = inhibition) at 10uM": 4.86}
{"smiles": "CCCCn1c(N)c(N(CC(C)C)C(=O)CN(C)S(=O)(=O)c2ccc(C)cc2)c(=O)[nH]c1=O", "hERG current change (%, negative = inhibition) at 10uM": -0.501}
{"smiles": "O=C(Nc1cccc(-c2cnc3ccccc3n2)c1)C1CC(=O)N(c2ccccc2)C1", "note": "(centres unmarked)", "hERG current change (%, negative = inhibition) at 10uM": -1.19}
{"smiles": "COc1ccc(S(=O)(=O)Nc2ccccc2C(F)(F)F)cc1", "hERG current change (%, negative = inhibition) at 10uM": -13.9}
{"smiles": "CCCC(=O)NC1=C(C#N)C2(CCCCC2)Cc2ccccc21", "hERG current change (%, negative = inhibition) at 10uM": 1.47}
{"smiles": "CC(=O)c1ccc(OCCCC(=O)OCc2nnc(-c3ccc(Cl)cc3)o2)cc1", "hERG current change (%, negative = inhibition) at 10uM": -1.83}
{"smiles": "O=C(CSc1nccn1-c1ccc(Cl)cc1)Nc1ccc2c(c1)OCO2", "hERG current change (%, negative = inhibition) at 10uM": -12}
{"smiles": "Cc1cccc(NC(=S)NC2CC3CCCC(C2)N3Cc2cccs2)c1", "note": "(centres unmarked)", "hERG current change (%, negative = inhibition) at 10uM": -35.9}
{"smiles": "Cc1cc(SCC(=O)NCCC2=CCCCC2)nc2ccccc12", "hERG current change (%, negative = inhibition) at 10uM": -10.9}
{"smiles": "Cc1occc1C(=O)N/N=C/c1ccc(-c2cccc([N+](=O)[O-])c2)o1", "hERG current change (%, negative = inhibition) at 10uM": 1.37}
{"smiles": "COc1ccc(CNC(=O)CCCn2nc(C)n3c(cc4sccc43)c2=O)cc1", "hERG current change (%, negative = inhibition) at 10uM": -1.61}
{"smiles": "CCOC(=O)c1sc2ncc([N+](=O)[O-])cc2c1N", "hERG current change (%, negative = inhibition) at 10uM": 1.98}
{"smiles": "Cc1ccc(C(C)C)c(Oc2cnccn2)c1", "hERG current change (%, negative = inhibition) at 10uM": 6.9}
{"smiles": "O=C(NCCS(=O)(=O)N1CCN(c2ccccc2F)CC1)c1cccc(Br)c1", "hERG current change (%, negative = inhibition) at 10uM": 2.34}
{"smiles": "Cc1ccc(C)c(S(=O)(=O)NCc2ccc(C(=O)NCc3ccccn3)cc2)c1", "hERG current change (%, negative = inhibition) at 10uM": -2.6}
{"smiles": "CC(C)CN(CC(C)C)S(=O)(=O)N1CCC(C(=O)NCc2ccc(F)cc2)CC1", "hERG current change (%, negative = inhibition) at 10uM": 12.9}
{"smiles": "Cc1ccc(C2=NOC(C)(c3nnc(-c4ccc(Cl)cc4)o3)C2)cc1", "note": "(centres unmarked)", "hERG current change (%, negative = inhibition) at 10uM": 6.5}
{"smiles": "O=C(Cn1c2[n+](c3ccc(C(F)(F)F)cc31)CCCCC2)c1ccc2c(c1)OCCO2.[Cl-]", "hERG current change (%, negative = inhibition) at 10uM": 5.15}
{"smiles": "CCCS(=O)(=O)N1CCCC(c2nc(-c3ccc(OC)cc3)no2)C1", "note": "(centres unmarked)", "hERG current change (%, negative = inhibition) at 10uM": -0.5}
{"smiles": "CN(C(=O)c1ccc2c(c1)OCO2)C1(C(=O)NC2CCCCC2)CCCCC1", "hERG current change (%, negative = inhibition) at 10uM": 0.646}
{"smiles": "CC(=O)Nc1cc(NC(=O)C2C3C=CC(C3)C2C(=O)O)ccc1Cl", "note": "(centres unmarked)", "hERG current change (%, negative = inhibition) at 10uM": 14.5}
{"smiles": "CN(C(=O)COC(=O)c1ccc(S(=O)(=O)N2CCCC2)cc1)c1ccccc1", "hERG current change (%, negative = inhibition) at 10uM": 1.3}
{"smiles": "NS(=O)(=O)c1ccc(CCNC(=O)c2ccc3c(c2)N(Cc2ccccc2)CCS3)cc1", "hERG current change (%, negative = inhibition) at 10uM": 18.8}
{"smiles": "COc1ccc(S(=O)(=O)N2CCN(C(=O)c3c(-c4ccccc4)noc3C)CC2)cc1", "hERG current change (%, negative = inhibition) at 10uM": -2.08}
{"smiles": "Cn1c(=O)n(CCOc2ccc(Cl)cc2Cl)c2ccccc21", "hERG current change (%, negative = inhibition) at 10uM": -2.26}
{"smiles": "Cc1ncoc1C(=O)N1CCCC(C(=O)c2cccc(OC(C)C)c2)C1", "note": "(centres unmarked)", "hERG current change (%, negative = inhibition) at 10uM": 10.3}
{"smiles": "CC(=O)Oc1cc2c3c(c1)/C(=C1/SC(=S)NC1=O)C(=O)N3C(C)(C)C=C2C", "hERG current change (%, negative = inhibition) at 10uM": 73.5}
{"smiles": "COc1cc(OC)cc(C(=O)Nc2ccc(N(C)C)c3ccccc23)c1", "hERG current change (%, negative = inhibition) at 10uM": 16.4}
{"smiles": "O=[N+]([O-])c1cccnc1Oc1cccnc1", "hERG current change (%, negative = inhibition) at 10uM": 27.4}
{"smiles": "CC1CCCCC12NC(=O)N(CC(=O)N1CCc3ccccc31)C2=O", "note": "(centres unmarked)", "hERG current change (%, negative = inhibition) at 10uM": 6.97}
{"smiles": "COc1ccc(CNC(=O)C2CC(c3cccc([N+](=O)[O-])c3)=NO2)cc1", "note": "(centres unmarked)", "hERG current change (%, negative = inhibition) at 10uM": -24.1}
{"smiles": "Cc1cc(NC(=O)C(=O)NCCN2CCN(C(=O)c3cccs3)CC2)ccc1Br", "hERG current change (%, negative = inhibition) at 10uM": -63.7}
{"smiles": "COC(=O)c1cc(C(=O)CC(C)C)c[nH]1", "hERG current change (%, negative = inhibition) at 10uM": 16.7}
{"smiles": "O=C(Nc1cccc2ncccc12)C(Cl)(Cl)Cl", "hERG current change (%, negative = inhibition) at 10uM": -4.64}
{"smiles": "Cc1nn(CC(=O)N2CCOCC2)c(=O)c2nn(-c3ccccc3)c(C)c12", "hERG current change (%, negative = inhibition) at 10uM": 8.35}
{"smiles": "O=C(OCC(=O)N1CCN(C(=O)c2ccco2)CC1)c1cccc(S(=O)(=O)N2CCc3ccccc32)c1", "hERG current change (%, negative = inhibition) at 10uM": -84}
